Measurements: paper PMC8070189, “Native Structure-Based Peptides as Potential Protein–Protein Interaction Inhibitors of SARS-CoV-2 Spike Protein and Human ACE2 Receptor” (Molecules, 2021)

Target: recombinant S-RBD protein (with an Fc tag) (SARS-CoV-2, UniProt P0DTC2)
Test: ELISA
Conditions: both partners purified

DKGNHEAED (also called 30-DKGNHEAED-38) [pep1c]
IC50: 3.3 ± 0.8 mM
